Article PMC9911399, “Two distinct binding modes provide the RNA-binding protein RbFox with extraordinary sequence specificity”
Residue numbers refer to the chain shown, from its start. The list shows a part of the results.

T1: RBFOX1 RRM RbFoxmut (Fox-RRM*) (Homo sapiens, UniProt Q9NWB1 109-208, R118D;E147R;N151S;E152T)
T1 sequence: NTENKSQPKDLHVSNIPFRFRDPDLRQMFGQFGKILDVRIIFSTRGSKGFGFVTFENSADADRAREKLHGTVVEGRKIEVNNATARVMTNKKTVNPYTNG

B1: CAGUAAU (DNA:RNA)
RNA: GGGAGACCGGAAUUCAGAUUGUCCCAGUAAUUUAAAUCCCGUCGUAGCCACCA
DNA 1: CAATCTGAATTCCGGTCTCCC
DNA 2: TGGTGGCTACGACGGGATT
B2: CUUGUAA (DNA:RNA)
RNA: B1 RNA with A26U, G27U, U28G, A29U, U31A
DNA 1: CAATCTGAATTCCGGTCTCCC
DNA 2: TGGTGGCTACGACGGGATT
B3: UAUAUAU (DNA:RNA)
RNA: B1 RNA with C25U, G27U, U28A, A29U
DNA 1: CAATCTGAATTCCGGTCTCCC
DNA 2: TGGTGGCTACGACGGGATT
B4: CACUAUG (DNA:RNA)
RNA: B1 RNA with G27C, A30U, U31G
DNA 1: CAATCTGAATTCCGGTCTCCC
DNA 2: TGGTGGCTACGACGGGATT
B5: GGUUAGG (DNA:RNA)
RNA: B1 RNA with C25G, A26G, G27U, A30G, U31G
DNA 1: CAATCTGAATTCCGGTCTCCC
DNA 2: TGGTGGCTACGACGGGATT
B6: UCUCCGA (DNA:RNA)
RNA: GGGAGACCGGAAUUCAGAUUGUCCUCUCCGAUUAAAUCCCGUCGUAGCCACCA
DNA 1: CAATCTGAATTCCGGTCTCCC
DNA 2: TGGTGGCTACGACGGGATT
B7: UUAGCUA (DNA:RNA)
RNA: B6 RNA with C26U, U27A, C28G, G30U
DNA 1: CAATCTGAATTCCGGTCTCCC
DNA 2: TGGTGGCTACGACGGGATT
B8: GCAUGUG (DNA:RNA)
RNA: B1 RNA with C25G, A26C, G27A, A29G, A30U, U31G
DNA 1: CAATCTGAATTCCGGTCTCCC
DNA 2: TGGTGGCTACGACGGGATT
B9: CCACUGC (DNA:RNA)
RNA: B6 RNA with U25C, U27A, C29U, A31C
DNA 1: CAATCTGAATTCCGGTCTCCC
DNA 2: TGGTGGCTACGACGGGATT
B10: ACCCGGG (DNA:RNA)
RNA: B6 RNA with U25A, U27C, C29G, A31G
DNA 1: CAATCTGAATTCCGGTCTCCC
DNA 2: TGGTGGCTACGACGGGATT
B11: UUAAAUG (DNA:RNA)
RNA: B1 RNA with C25U, A26U, G27A, U28A, A30U, U31G
DNA 1: CAATCTGAATTCCGGTCTCCC
DNA 2: TGGTGGCTACGACGGGATT
B12: ACUCGGG (DNA:RNA)
RNA: B6 RNA with U25A, C29G, A31G
DNA 1: CAATCTGAATTCCGGTCTCCC
DNA 2: TGGTGGCTACGACGGGATT
B13: GUUACUG (DNA:RNA)
RNA: B6 RNA with U25G, C26U, C28A, G30U, A31G
DNA 1: CAATCTGAATTCCGGTCTCCC
DNA 2: TGGTGGCTACGACGGGATT
B14: AGUUAUC (DNA:RNA)
RNA: B1 RNA with C25A, A26G, G27U, A30U, U31C
DNA 1: CAATCTGAATTCCGGTCTCCC
DNA 2: TGGTGGCTACGACGGGATT
B15: GGAUUAG (DNA:RNA)
RNA: B1 RNA with C25G, A26G, G27A, A29U, U31G
DNA 1: CAATCTGAATTCCGGTCTCCC
DNA 2: TGGTGGCTACGACGGGATT
B16: CACAUUU (DNA:RNA)
RNA: B1 RNA with G27C, U28A, A29U, A30U
DNA 1: CAATCTGAATTCCGGTCTCCC
DNA 2: TGGTGGCTACGACGGGATT
B17: CAAAGAC (DNA:RNA)
RNA: B1 RNA with G27A, U28A, A29G, U31C
DNA 1: CAATCTGAATTCCGGTCTCCC
DNA 2: TGGTGGCTACGACGGGATT
B18: GUCGGUA (DNA:RNA)
RNA: B6 RNA with U25G, C26U, U27C, C28G, C29G, G30U
DNA 1: CAATCTGAATTCCGGTCTCCC
DNA 2: TGGTGGCTACGACGGGATT
B19: CCACGUA (DNA:RNA)
RNA: B6 RNA with U25C, U27A, C29G, G30U
DNA 1: CAATCTGAATTCCGGTCTCCC
DNA 2: TGGTGGCTACGACGGGATT
B20: UCCUCUA (DNA:RNA)
RNA: B6 RNA with U27C, C28U, G30U
DNA 1: CAATCTGAATTCCGGTCTCCC
DNA 2: TGGTGGCTACGACGGGATT
B21: AUGGGAG (DNA:RNA)
RNA: B1 RNA with C25A, A26U, U28G, A29G, U31G
DNA 1: CAATCTGAATTCCGGTCTCCC
DNA 2: TGGTGGCTACGACGGGATT
B22: CUCGGCC (DNA:RNA)
RNA: B1 RNA with A26U, G27C, U28G, A29G, A30C, U31C
DNA 1: CAATCTGAATTCCGGTCTCCC
DNA 2: TGGTGGCTACGACGGGATT
B23: ACCAGAU (DNA:RNA)
RNA: B1 RNA with C25A, A26C, G27C, U28A, A29G
DNA 1: CAATCTGAATTCCGGTCTCCC
DNA 2: TGGTGGCTACGACGGGATT
B24: GAUAUAC (DNA:RNA)
RNA: B1 RNA with C25G, G27U, U28A, A29U, U31C
DNA 1: CAATCTGAATTCCGGTCTCCC
DNA 2: TGGTGGCTACGACGGGATT
B25: UCCUACG (DNA:RNA)
RNA: B1 RNA with C25U, A26C, G27C, A30C, U31G
DNA 1: CAATCTGAATTCCGGTCTCCC
DNA 2: TGGTGGCTACGACGGGATT
B26: CGCACCA (DNA:RNA)
RNA: B6 RNA with U25C, C26G, U27C, C28A, G30C
DNA 1: CAATCTGAATTCCGGTCTCCC
DNA 2: TGGTGGCTACGACGGGATT
B27: UCUGGGC (DNA:RNA)
RNA: B6 RNA with C28G, C29G, A31C
DNA 1: CAATCTGAATTCCGGTCTCCC
DNA 2: TGGTGGCTACGACGGGATT
B28: CACUCGC (DNA:RNA)
RNA: B1 RNA with G27C, A29C, A30G, U31C
DNA 1: CAATCTGAATTCCGGTCTCCC
DNA 2: TGGTGGCTACGACGGGATT
B29: GCUGCCU (DNA:RNA)
RNA: B6 RNA with U25G, C28G, G30C, A31U
DNA 1: CAATCTGAATTCCGGTCTCCC
DNA 2: TGGTGGCTACGACGGGATT
B30: UUAGUCU (DNA:RNA)
RNA: B1 RNA with C25U, A26U, G27A, U28G, A29U, A30C
DNA 1: CAATCTGAATTCCGGTCTCCC
DNA 2: TGGTGGCTACGACGGGATT
B31: AGCGUGG (DNA:RNA)
RNA: B6 RNA with U25A, C26G, U27C, C28G, C29U, A31G
DNA 1: CAATCTGAATTCCGGTCTCCC
DNA 2: TGGTGGCTACGACGGGATT

target: T1, RBFOX1 RRM RbFoxmut (Fox-RRM*); assay: EMSA; HiTS-Eq, 1 nM pool, 10 min; buffer printed only for the single-RNA assays: 10 mM Tris pH 7.5, 150 mM NaCl, 3.4 mM EDTA, 0.001% NP-40, 30 C; conditions: tags: His6 N-terminal (pET28a); label: 5' 32P
In short: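 A pool of RNA with 7 randomized nucleotides, 5′-radiolabelled and with DNA-annealed flanks, was equilibrated at 1 nM for 10 min in 50 µL with purified RbFox RRM, wild type or mutant, across increasing protein concentrations. Free RNA was separated by 8% native PAGE, excised, reverse-transcribed, barcoded by PCR and sequenced. Relative association constants were obtained from read-count changes of each RNA species versus the control reaction and normalised to the cognate motif.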

Question: Which binding signal does the source give for B1 here?
Answer: The binding signal was 0.0996 KA relative to UGCAUGU.

Question: With B2 as the binder, how does the binding signal read?
Answer: The binding signal was 0.159 KA relative to UGCAUGU.

Question: For B3, which binding signal is on record?
Answer: The binding signal was 0.0852 KA relative to UGCAUGU.

Question: How did the binding signal turn out when B4 was run?
Answer: Its binding signal is 0.119 KA relative to UGCAUGU.

Question: With B5 as the binder, how does the binding signal read?
Answer: Its binding signal is 0.08 KA relative to UGCAUGU.

Question: With B6 as the binder, how does the binding signal read?
Answer: The binding signal was 0.0673 KA relative to UGCAUGU.

Question: B7 was tested. Which binding signal did it give?
Answer: The binding signal was 0.124 KA relative to UGCAUGU.

Question: With B8 as the binder, how does the binding signal read?
Answer: Its binding signal is 0.954 KA relative to UGCAUGU.

Question: For B9, which binding signal is on record?
Answer: The binding signal was 0.0998 KA relative to UGCAUGU.

Question: With B10 as the binder, how does the binding signal read?
Answer: Its binding signal is 0.0835 KA relative to UGCAUGU.

Question: How did the binding signal turn out when B11 was run?
Answer: The binding signal was 0.0888 KA relative to UGCAUGU.

Question: For B12, which binding signal is on record?
Answer: Its binding signal is 0.0886 KA relative to UGCAUGU.

Question: For B13, which binding signal is on record?
Answer: Its binding signal is 0.132 KA relative to UGCAUGU.

Question: How did the binding signal turn out when B14 was run?
Answer: The binding signal was 0.115 KA relative to UGCAUGU.

Question: Which binding signal does the source give for B15 here?
Answer: The binding signal was 0.108 KA relative to UGCAUGU.

Question: With B16 as the binder, how does the binding signal read?
Answer: The binding signal was 0.0891 KA relative to UGCAUGU.

Question: For B17, which binding signal is on record?
Answer: The binding signal was 0.0623 KA relative to UGCAUGU.

Question: B18 was tested. Which binding signal did it give?
Answer: The binding signal was 0.2 KA relative to UGCAUGU.

Question: B19 was tested. Which binding signal did it give?
Answer: Its binding signal is 0.142 KA relative to UGCAUGU.

Question: With B20 as the binder, how does the binding signal read?
Answer: The binding signal was 0.0903 KA relative to UGCAUGU.

Question: With B21 as the binder, how does the binding signal read?
Answer: Its binding signal is 0.142 KA relative to UGCAUGU.

Question: Which binding signal does the source give for B22 here?
Answer: Its binding signal is 0.195 KA relative to UGCAUGU.

Question: How did the binding signal turn out when B23 was run?
Answer: Its binding signal is 0.0877 KA relative to UGCAUGU.

Question: With B24 as the binder, how does the binding signal read?
Answer: Its binding signal is 0.0885 KA relative to UGCAUGU.

Question: With B25 as the binder, how does the binding signal read?
Answer: Its binding signal is 0.109 KA relative to UGCAUGU.

Question: B26 was tested. Which binding signal did it give?
Answer: The binding signal was 0.103 KA relative to UGCAUGU.

Question: With B27 as the binder, how does the binding signal read?
Answer: The binding signal was 0.0756 KA relative to UGCAUGU.

Question: Which binding signal does the source give for B28 here?
Answer: The binding signal was 0.0994 KA relative to UGCAUGU.

Question: With B29 as the binder, how does the binding signal read?
Answer: The binding signal was 0.0709 KA relative to UGCAUGU.

Question: Which binding signal does the source give for B30 here?
Answer: Its binding signal is 0.0656 KA relative to UGCAUGU.

Question: For B31, which binding signal is on record?
Answer: Its binding signal is 0.125 KA relative to UGCAUGU.
